{"source": "PubChem BioAssay AID1477", "about": "(National Center for Advancing Translational Sciences (NCATS), 2009)", "note": "Fewer than 10 of roughly 230,000 compounds were called active. Inconclusive results, whose numbers are uncertain, are shown with a selection of clear calls. Calls come from the whole dose curve; as a rule, active = well fitted curve in the direction sought with a large enough effect; inconclusive = small, poorly fitted or top-dose-only effect, or effect the other way, or another doubt; inactive = no such curve, though single readings can be large or run the other way. No potency is given beside an inconclusive call; the fits are too rough.", "data": [{"molecular_target": "Runt-related transcription factor 1 (Homo sapiens) + Core-binding factor subunit beta (Homo sapiens) (UniProt Q01196+Q13951)", "sequence (Q01196 whole entry, looked up)": "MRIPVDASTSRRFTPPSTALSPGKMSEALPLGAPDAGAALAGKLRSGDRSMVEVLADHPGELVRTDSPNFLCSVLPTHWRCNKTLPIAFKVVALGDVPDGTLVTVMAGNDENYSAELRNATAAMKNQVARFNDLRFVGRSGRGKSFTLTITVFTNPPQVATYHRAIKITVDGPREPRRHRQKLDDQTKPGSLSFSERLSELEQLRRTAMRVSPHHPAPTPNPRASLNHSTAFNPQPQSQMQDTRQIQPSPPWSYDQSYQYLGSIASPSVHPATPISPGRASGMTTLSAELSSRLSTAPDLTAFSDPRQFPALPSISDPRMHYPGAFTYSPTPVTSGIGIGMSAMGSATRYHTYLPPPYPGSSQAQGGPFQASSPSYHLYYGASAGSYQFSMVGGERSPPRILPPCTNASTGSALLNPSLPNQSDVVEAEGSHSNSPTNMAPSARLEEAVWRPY", "sequence (Q13951 whole entry, looked up)": "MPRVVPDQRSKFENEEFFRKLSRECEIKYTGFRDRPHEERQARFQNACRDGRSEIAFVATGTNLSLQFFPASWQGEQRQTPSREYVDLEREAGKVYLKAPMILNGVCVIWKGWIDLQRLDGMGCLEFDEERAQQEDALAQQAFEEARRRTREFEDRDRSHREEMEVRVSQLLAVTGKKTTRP", "experiment": "qHTS Assay for Compounds Blocking the Interaction Between CBF-beta and RUNX1 for the Treatment of Acute Myeloid Leukemia; for activity, negative = inhibition: % of control where 0% means no effect", "settings": "AlphaScreen CBFb-His/RUNX1-biotin binding, biochemical; activity, negative = inhibition: at 59.8 µM (top of the series) unless noted", "outline": "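Inhibition was taken as any reduction in AlphaScreen signal from the CBF-beta–RUNX1 pair (His and biotin tags, 30 nM each), measured after compound (15 min) and bead (90 min) incubations at room temperature.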", "values": [{"smiles": "Cc1cc(Oc2ccc(C#N)cc2)nc(NCc2ccccc2)n1", "activity, negative = inhibition": "inactive: 3.65%"}, {"smiles": "Cc1ccccc1CNC(=O)c1ccc(CSCc2ccccc2)cc1", "Potency": "inconclusive [activator, partial curve]"}, {"smiles": "CCN(CC)c1ccc2oc(=O)c(C)nc2c1", "Potency": "inconclusive [activator, partial curve]"}, {"smiles": "COc1ccc(-c2coc3c(CN4CCOCC4)c(O)ccc3c2=O)cc1", "activity, negative = inhibition": "inactive: -1.75%"}, {"smiles": "CCC(C)n1c(O)c(/C=N/NC(=O)c2ccncc2)c(=O)[nH]c1=S", "note": "(centres undefined)", "Potency": "inconclusive [inhibitor, partial curve]"}, {"smiles": "O=[N+]([O-])c1ccc(-c2nc(-c3ccc(F)cc3)c(-c3ccncc3)[nH]2)cc1", "Potency": "inconclusive [inhibitor, single point]"}, {"smiles": "S=C(S)OC1CC2CC1C1CCCC21", "note": "(centres undefined)", "Potency": "inconclusive [inhibitor, single point]"}, {"smiles": "c1csc(C(c2nnnn2C2CCCCC2)N2CCCC3(CCCCC3)C2)c1", "note": "(centres undefined)", "activity, negative = inhibition": "inactive: 9.3%"}, {"smiles": "COc1cccc(C2=CC(c3ccc(N(C)C)cc3)n3ncnc3N2)c1", "note": "(centres undefined)", "Potency": "inconclusive [activator, single point]"}, {"smiles": "COc1ccccc1/C=c1\\sc2nc(-c3ccco3)nn2c1=O", "Potency": "inconclusive [inhibitor, single point]"}, {"smiles": "Cc1nnc(-c2ccccc2)c(=O)n1/N=C/c1c(O)ccc2ccccc12", "Potency": "inconclusive [inhibitor, partial curve]"}, {"smiles": "N#Cc1nc(-c2ccccc2Cl)oc1N1CCCCC1", "Potency": "inconclusive [inhibitor, single point]"}, {"smiles": "Cc1ccc(C)c(S(=O)(=O)N2CCN(Cc3ccc(O)c4ncccc34)CC2)c1", "Potency": "inconclusive [inhibitor, partial curve]"}, {"smiles": "CCOc1ccc(CC(=O)Nc2ccc(-c3ccc4nnc(C)n4n3)cc2)cc1", "Potency": "inconclusive [activator, single point]"}, {"smiles": "O=C(CCN1C(=O)C2C3C=CC(C3)C2C1=O)N1CCN(c2cccc(Cl)c2)CC1", "note": "(centres undefined)", "activity, negative = inhibition": "inactive: -1.6%"}, {"smiles": "Cc1c(C(=O)c2ccc(Cl)c([N+](=O)[O-])c2)c2ccccn2c1CCC#N", "Potency": "inconclusive [inhibitor, single point]"}, {"smiles": "NC(=O)COC(=O)c1cccnc1Nc1ccccc1F", "activity, negative = inhibition": "inactive: 20.8%"}, {"smiles": "COc1cc2nc(N(C)CCCNC(=O)[C@@H]3CCCO3)nc(N)c2cc1OC", "Potency": "inconclusive [inhibitor, partial curve]"}, {"smiles": "C/C(=N\\Nc1nnc2c3ccccc3n(C)c2n1)c1ccc(C)o1", "Potency": "inconclusive [inhibitor, single point]"}]}]}
